# The campaign covered roughly 220,000 compounds. About 16,000 (7.3%) were called active. Inconclusive results, whose numbers are uncertain, are shown with a selection of clear calls. Calls follow the shape of the dose curve; as a rule, active = well fitted inhibition curve with a large enough effect (not every such curve was filed as active); inconclusive = small, poorly fitted or top-dose-only effect, or another doubt; inactive = no such curve, though single readings can be large or run the other way. No potency is given beside an inconclusive call; the fits are too rough.
# Target: Aldehyde dehydrogenase 1A1 (Homo sapiens) (UniProt P00352)
# Assay: qHTS Assay for Inhibitors of Aldehyde Dehydrogenase 1 (ALDH1A1)
# Conditions: Purified ALDH1A1, NADH fluorescence, propionaldehyde substrate; series mostly up to 75.3 µM
# Potency is read from the fitted curve at half-maximal effect; tags tell the direction and shape of the fitted curve.
# Chain of UniProt P00352 (P00352 whole entry, looked up): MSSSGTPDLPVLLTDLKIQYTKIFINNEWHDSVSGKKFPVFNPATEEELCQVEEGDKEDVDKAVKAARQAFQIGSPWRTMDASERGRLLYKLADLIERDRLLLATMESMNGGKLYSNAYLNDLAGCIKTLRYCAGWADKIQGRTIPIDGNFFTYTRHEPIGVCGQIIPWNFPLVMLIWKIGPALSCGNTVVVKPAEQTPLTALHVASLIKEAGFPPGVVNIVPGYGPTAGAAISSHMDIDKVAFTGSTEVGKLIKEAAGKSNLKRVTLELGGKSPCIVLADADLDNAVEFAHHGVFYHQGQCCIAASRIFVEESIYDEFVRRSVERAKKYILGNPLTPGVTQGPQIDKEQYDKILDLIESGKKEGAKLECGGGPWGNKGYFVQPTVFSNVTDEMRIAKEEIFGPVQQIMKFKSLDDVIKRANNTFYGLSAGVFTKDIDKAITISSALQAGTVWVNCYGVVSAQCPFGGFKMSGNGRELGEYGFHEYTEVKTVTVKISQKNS
row,Structure (SMILES),Potency
1,C=CCOC(=O)C1=C[C@@H](c2ccccc2)C[C@@H](OCc2ccc(CO)cc2)O1,active: 10 µM
2,CC(=O)Nc1cccc2c1OCCO2,inactive
3,CCc1nn(C(C)C(=O)NC(C)CCc2ccco2)c(=O)c2cc3occc3n12 (stereo not given),"inconclusive [inhibitor, single point]"
4,Cc1ccccc1-n1nnnc1-c1ccccc1,active: 4.47 µM
5,N#CCSc1nnc(-c2cnccn2)n1Cc1ccccc1,"inconclusive [inhibitor, single point]"
6,CCCn1cnc2c(c1=O)c1nc3ccccc3nc1n2Cc1ccccc1OC,active: 3.98 µM
7,COC(=O)c1nnc(C(=O)N(C)Cc2ccccc2)c2[nH]c3ccccc3c12,"inconclusive [inhibitor, full curve, poor fit]"
8,C/C(=N\NC(=O)c1cccs1)C(C)(C)C,"inconclusive [inhibitor, single point]"
9,O=C(CN1CCCCC1)N/N=C/c1cc2ccccc2nc1Cl,inactive
10,Cc1ccc(-c2cc(C(F)F)n3ncc(C(=O)NCc4ccco4)c3n2)cc1,"inconclusive [inhibitor, full curve]"
11,COc1ccccc1C(=O)OCC(=O)Nc1ccc(OC(F)F)cc1,"inconclusive [inhibitor, single point]"
12,CCOc1ccc(C(=O)NCc2ccccc2)cc1Br,"inconclusive [inhibitor, single point]"
13,O=C(Nc1ccc([N+](=O)[O-])cn1)c1ccc(Br)o1,inactive
14,CCOC(=O)c1cc2n(c1/N=C/N(C)C)-c1ccccc1C2=O,active: 17.8 µM
15,CCOc1ccccc1C(=O)Nc1nnc(CC)s1,"inconclusive [inhibitor, full curve]"
16,Cc1ccc2nc(NC(=O)COC(=O)c3ccc(Br)o3)sc2c1,"inconclusive [inhibitor, single point]"
17,CC(=O)c1ccc(NC(=O)CSc2nnc(-c3ccoc3C)n2Cc2ccccc2)cc1,"inconclusive [inhibitor, single point]"
18,COc1ccc(CCNS(=O)(=O)c2cccc(C(=O)O)c2)cc1OC,inactive
19,CCOC(=O)N1CCC(NC(=O)CCC(=O)N2CCOc3ccc(C)cc32)CC1,"inconclusive [inhibitor, single point]"
20,CC1(C)CC(=O)c2sc(N)nc2C1,"inconclusive [inhibitor, single point]"
21,O=C1CC(N2CCCCCC2)C(=O)N1c1ccc2c(c1)OCO2 (stereo not given),active: 5.01 µM
22,CNC(=O)/C(C#N)=C/c1c(F)cccc1Cl,"inconclusive [inhibitor, single point]"
23,Cc1c(NC(=O)C(C)OC(=O)c2ccc([N+](=O)[O-])s2)c(=O)n(-c2ccccc2)n1C (stereo not given),inactive
24,CSCCC(NS(=O)(=O)c1ccccc1F)C(=O)OCc1ccccc1Cl (stereo not given),active: 15.8 µM
25,COc1ccc(N=Nc2nc3ccc(Br)cc3n2C)cc1,"inconclusive [inhibitor, full curve, poor fit]"

row,Structure (SMILES),Potency
1,O=C(NC(=S)NCc1ccccc1)c1cccnc1,inactive
2,Fc1ccc2nc(N3CCCCC3)sc2c1,inactive
3,CCc1nnc(SCC(=O)NC2CCCCC2)nc1CC,"inconclusive [inhibitor, single point]"
4,CC(=O)Nc1ccc(NC(=O)c2sc3nc4c(c(-c5ccc(C)cc5)c3c2N)CCC4)cc1,"inconclusive [inhibitor, partial curve]"
5,OC1CCN(c2c3c(nc4cc(-c5cccc(F)c5)nn24)CCCC3)CC1,"inconclusive [inhibitor, partial curve]"
6,COCCCNC(=S)N1CCCN(c2nc3cc(C)c(C)cc3cc2C#N)CC1,"inconclusive [inhibitor, partial curve]"
7,Cc1cc(C)n2nc(SCc3nnc(SCc4ccccc4C)s3)nc2n1,inactive
8,CCc1n[nH]c(=S)n1/N=C/c1c[nH]c2ccc(Br)cc12,inactive
9,CN1CCN(c2nc(-c3ccc(Br)cc3)nnc2-c2ccccc2)CC1,active: 22.4 µM
10,CCOc1ccc2c(c1)c(C(C)=O)c(C)n2-c1ccccc1,"inconclusive [inhibitor, single point]"
11,CCC(=O)Nc1ccc2nc(C)n(CC(=O)Nc3ccccc3)c(=O)c2c1,"inconclusive [inhibitor, partial curve]"
12,O=C(COC(=O)Cn1cnc2ccccc21)NCCC1=CCCCC1,"inconclusive [inhibitor, single point]"
13,O=c1[nH]c2ccc(Cl)cc2c(-c2ccccc2)c1SC(=S)N1CCOCC1,active: 8.91 µM
14,Cc1nn(-c2ccccc2)c(N)c1N=Nc1cccnc1,inactive
15,CC(C)(C)c1cc(CN2CCCCC2)cc(C(C)(C)C)c1O,active: 14.1 µM
16,COc1ccc(-n2c(=O)cc(N3CCN(c4ccccc4)CC3)[nH]c2=O)cc1,"inconclusive [inhibitor, partial curve, poor fit]"
17,COc1ccnc(CSC(N)=Nc2ccc(F)cc2)c1,"inconclusive [inhibitor, single point]"
18,C/C(=N\Nc1ccc([N+](=O)[O-])cc1[N+](=O)[O-])C(C)C(C)C (stereo not given),"inconclusive [inhibitor, single point]"
19,Cc1cccc(NC(=O)CSCc2c(C)noc2C)c1C,"inconclusive [inhibitor, single point]"
20,CC(=O)c1cc(CC=C(C)C)c(O)c(CC=C(C)C)c1O,inactive
21,CNC(=S)N(Cc1ccc(OC)cc1)C1CC(=O)N(c2ccc(Cl)cc2)C1=O (stereo not given),"inconclusive [inhibitor, partial curve, poor fit]"
22,Fc1cccc(CSc2nnc3ccc(-c4ccncc4)nn23)c1,inactive
23,CCSc1ccc(-c2cccc([N+](=O)[O-])c2)nn1,"inconclusive [inhibitor, single point]"
24,Cc1cccc(Nc2nnc(SC/C(O)=C(\C#N)c3nc4ccccc4[nH]3)s2)c1C,"inconclusive [inhibitor, single point]"
25,Cc1ccc(Nc2nc3ccccc3nc2-n2nc(C)cc2C)cc1,"inconclusive [inhibitor, single point]"

row,Structure (SMILES),Potency
1,Cc1nc(SCn2nnc3ccccc3c2=O)nc(C)c1C,"inconclusive [inhibitor, partial curve]"
2,CCN(CC)S(=O)(=O)c1ccc(-n2c(=O)c(C(C)C)c(C)n2C)cc1,inactive
3,Cc1cc(/C=C(/C#N)c2nc3ccccc3[nH]2)c(C)n1-c1cccc([N+](=O)[O-])c1,"inconclusive [inhibitor, partial curve]"
4,CCOC(=O)c1c(NC(=O)Cn2nc(C(F)F)cc2C(F)F)sc(C)c1C,"inconclusive [inhibitor, partial curve]"
5,Cn1c(SCC(=O)N/N=C/C=C/c2ccccc2[N+](=O)[O-])nc2ccccc21,"inconclusive [inhibitor, single point]"
6,COCCCNC(=O)c1cccn2c(=O)c3cc4ccccc4cc3nc12,inactive
7,CCn1nccc1C(=O)NC1=C(C#N)CCC1,"inconclusive [inhibitor, single point]"
8,O=C(CSc1nnc(CNC(=O)c2ccco2)o1)NC1CCCC1,"inconclusive [inhibitor, single point]"
9,O=C(c1ccco1)N(Cc1ccco1)c1ccc(O)cc1,inactive
10,CC(Sc1ccc2c(c1)OCCO2)C(=O)Nc1ccc2c(c1)OCO2 (stereo not given),active: 10 µM
11,CSCCn1c(C(C)(C)C)cc(C(=O)O)c1C,inactive
12,Cc1cn2nc(N)c3ccccc3c2n1,"inconclusive [inhibitor, partial curve]"
13,C#Cc1ccc([C@@H]2C=C(C(=O)OCC=C)O[C@H](OCc3ccc(CO)cc3)C2)cc1,active: 12.6 µM
14,O=C(c1ccc2ccccc2c1)N1CCN(c2ccccc2)CC1,inactive
15,N#Cc1nc(-c2cccc3ccccc23)oc1NCCN1CCCCC1,"inconclusive [inhibitor, partial curve]"
16,COc1ccc(CNC(=O)C(CCSC)NS(=O)(=O)c2ccccc2F)cc1 (stereo not given),"inconclusive [inhibitor, single point]"
17,O=C(Nc1cccc(-c2cn3cccnc3n2)c1)c1ccc(Br)o1,"inconclusive [inhibitor, partial curve]"
18,Cc1noc(C)c1-c1cc(NCc2ccccc2)ncn1,inactive
19,O=C(CSc1nc2ccccc2s1)N1CCOCC1,"inconclusive [inhibitor, single point]"
20,CCCC(=O)NC(c1cccs1)c1cc(Cl)c2cccnc2c1O (stereo not given),"inconclusive [inhibitor, partial curve, poor fit]"
21,CCC(C)c1ccccc1NC(=O)COC(=O)c1ccc2c(c1)S(=O)(=O)c1ccccc1C2=O (stereo not given),"inconclusive [inhibitor, partial curve]"
22,N#C/C(=N\Nc1ccc([N+](=O)[O-])cc1)C(=N)N1CCOCC1,"inconclusive [inhibitor, partial curve]"
23,CCCc1cc(=O)n2[nH]c(NCc3c(F)cccc3Cl)nc2n1,"inconclusive [inhibitor, single point]"
24,Cc1ccc(N=CC=C2OC(C)(C)C(C)(C)O2)cc1,"inconclusive [inhibitor, partial curve]"
25,COc1cc(-c2cccc([C@H]3[C@@H]4C=CC[C@@H](C)[C@@H]4C(=O)N3Cc3ccccc3)c2)cc(OC)c1OC,"inconclusive [inhibitor, single point]"

# From PubChem BioAssay AID1030 (National Center for Advancing Translational Sciences (NCATS), 2008)
